Source: publication PMC4336329 (PLoS ONE, 2015)
The campaign covered roughly 310,000 compounds. About 2,200 (0.71%) showed an effect of 50% or more. Effects have a minus sign here. This is one part of the list.

Target: human ether-à-go-go-related gene (hERG) potassium channel (human, UniProt Q12809)
Test: primary screen, population patch clamp on CHO cells stably expressing hERG

Chain of human ether-à-go-go-related gene (hERG) potassium channel (Q12809 whole entry, looked up): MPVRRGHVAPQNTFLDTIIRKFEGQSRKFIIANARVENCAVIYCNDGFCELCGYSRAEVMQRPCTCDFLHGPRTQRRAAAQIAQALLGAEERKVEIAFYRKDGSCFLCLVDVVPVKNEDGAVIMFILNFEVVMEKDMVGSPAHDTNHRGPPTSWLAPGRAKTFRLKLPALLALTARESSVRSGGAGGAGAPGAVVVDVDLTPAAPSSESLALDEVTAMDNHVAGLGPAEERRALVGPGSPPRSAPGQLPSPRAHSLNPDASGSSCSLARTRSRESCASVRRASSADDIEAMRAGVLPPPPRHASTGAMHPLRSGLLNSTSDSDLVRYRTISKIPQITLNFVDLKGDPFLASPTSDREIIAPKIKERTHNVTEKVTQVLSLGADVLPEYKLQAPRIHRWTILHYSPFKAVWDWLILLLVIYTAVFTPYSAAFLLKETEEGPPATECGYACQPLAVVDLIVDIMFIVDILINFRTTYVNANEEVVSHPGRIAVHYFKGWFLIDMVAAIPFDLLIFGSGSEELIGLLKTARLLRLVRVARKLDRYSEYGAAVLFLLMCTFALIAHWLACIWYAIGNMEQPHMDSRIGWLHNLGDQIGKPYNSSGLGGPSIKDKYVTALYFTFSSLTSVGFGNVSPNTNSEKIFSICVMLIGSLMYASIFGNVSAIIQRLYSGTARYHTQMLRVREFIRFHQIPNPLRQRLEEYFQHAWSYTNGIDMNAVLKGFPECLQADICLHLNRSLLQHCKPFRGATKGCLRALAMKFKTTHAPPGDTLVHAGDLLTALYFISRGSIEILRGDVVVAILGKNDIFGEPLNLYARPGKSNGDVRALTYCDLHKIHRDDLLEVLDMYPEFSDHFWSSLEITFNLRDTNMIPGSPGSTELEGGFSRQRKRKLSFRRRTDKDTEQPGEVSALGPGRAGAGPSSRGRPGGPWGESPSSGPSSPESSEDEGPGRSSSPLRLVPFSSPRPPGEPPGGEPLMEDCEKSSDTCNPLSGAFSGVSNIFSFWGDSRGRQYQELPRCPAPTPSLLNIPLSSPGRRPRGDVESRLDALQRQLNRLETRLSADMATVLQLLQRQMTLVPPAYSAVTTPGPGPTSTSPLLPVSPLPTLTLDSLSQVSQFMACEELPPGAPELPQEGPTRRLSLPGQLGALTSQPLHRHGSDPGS

Compound | hERG current change (%, negative = inhibition) at 1uM [%]
N#Cc1ccc(Sc2nc3ccccc3[nH]2)cc1C#N | 1.46
O=C(NCc1ccccn1)C1CCN(S(=O)(=O)N2CCCC2)CC1 | -1.52
NC1=NS(=O)(=O)NC1c1ccc(Cl)cc1 (centres unmarked) | 11.1
CCCn1nnc(NC(=O)c2ccco2)n1 | 5.44
O=C(COC(=O)C1CCCN1C(=O)C12CC3CC(CC(C3)C1)C2)c1ccc(Br)cc1 (centres unmarked) | 6.91
O=C(Nc1ccc(N2CCN(C(=O)c3ccco3)CC2)cc1)C(c1ccccc1)c1ccccc1 | 8.79
COc1cc(C(=O)Nc2cccc(C)c2C)ccc1OCC(=O)N1CCOCC1 | 8.64
Cc1cccc(N(C)C(=O)c2cnn(-c3ccccc3)c2C)c1 | 12.7
O=C(NNC1=NC2(CCCC2)Cc2ccccc21)c1cccnc1 | 18.4
Cc1cccc(OCCn2c(NC(=O)c3ccco3)nc3ccccc32)c1 | 13.7
CCOC(=O)N1CCC(O)(c2cc(C)c(C)cc2C)CC1 | 4.22
COc1ccc(C)cc1NC(=O)c1cc(S(=O)(=O)N2CCCCC2)ccc1N1CCOCC1 | -9.63
N#Cc1ccc(-c2ccc3c(c2)OCO3)nc1SCC(=O)OCc1ccccc1 | 10.3
O=C(NC(=Nc1ccccc1)N1CCOCC1)Nc1ccccc1 | 10
COc1ccccc1C(=O)Nc1cc2c(ccc3ccccc32)oc1=O | 7.07
CC1CCc2nn(CC(=O)NCc3ccc(F)cc3)cc2C1 (centres unmarked) | 8.55
CCN1CCN(c2cc(C)c3cc(NC(=S)N(C)Cc4ccccc4)ccc3n2)CC1 | -56.7
Nc1c(-c2ccccc2)cnn1C1CCS(=O)(=O)C1 (centres unmarked) | 13.9
Cc1ccc(O)c(NC(=O)C2=CC(c3cccs3)=NS(=O)(=O)N2C)c1 | 5.63
CCCNc1c(NS(=O)(=O)c2ccc(Cl)s2)c(=O)oc2ccccc12 | -13.8
COC(=O)c1sc2ccccc2c1NC(=O)c1ccc(S(=O)(=O)N2CCCCC2)cc1 | 6.69
COc1ccc(CN2CC(C(=O)NCc3cccc(OC)c3)CC2=O)cc1 (centres unmarked) | 4.94

Compound | hERG current change (%, negative = inhibition) at 1uM [%]
CCOC(=O)N1CCN(C(=O)CS(=O)(=O)Cc2nc(-c3cccc(OC)c3)oc2C)CC1 | -0.994
O=C(N/N=C/c1ccc(O)c(O)c1)c1cccc(S(=O)(=O)N2CCCC2)c1 | -15.2
O=C(Nc1ccc(F)cc1F)c1ccco1 | 3.86
NS(=O)(=O)c1ccc(NC(=O)COc2ccc(C(=O)c3ccc(F)cc3)cc2)cc1 | 7.6
Cc1nc(Cc2nnc(SCC(=O)Nc3c(C)cccc3C)o2)cs1 | 15.5
COc1ccccc1CNC(=O)c1ccc(N(C)S(=O)(=O)c2ccc(C)cc2)cc1 | 11.8
CN(C)c1ccc(/C=C/c2cc[n+](C)cc2)cc1.[I-] | -0.469
CC(C)NC(=O)CCn1ccc2cc(S(=O)(=O)N3CCCC3)ccc21 | 16.5
CC(NC(=S)NCCc1ccccc1)C(c1cccs1)N1CCN(Cc2ccccc2)CC1 (centres unmarked) | 11.8
N#Cc1cc2c(nc1S(=O)(=O)Cc1ccccc1)CCCC2 | 5.82
COc1ccc(-n2c(-c3ccccc3Br)nc3ccccc3c2=O)cc1 | 3.22
Cc1csc(=O)n1CCC(=O)OC(C)C(=O)Nc1ccc(N2CCOCC2)cc1 (centres unmarked) | 3.65
CCOC(=O)c1oc2cc(C)cc(C)c2c1C | 14.1
O=C(Nc1ccc(S(=O)(=O)Nc2ccccn2)cc1)c1ccccc1 | 12.6
CCOc1cc(Cl)c(S(=O)(=O)NCc2cccnc2)cc1Cl | 7.02
COc1cccc(CN2CC(C(=O)N(C)Cc3nc4ccc(F)cc4[nH]3)CCC2=O)c1 (centres unmarked) | 8.59
Cc1ccc2c(C)c(C(=O)NCCc3ccco3)oc2c1C | 5.36
O=[N+]([O-])c1cccc(/C=N/NC2CCS(=O)(=O)C2)c1 (centres unmarked) | 7.34
O=C(Nc1ccccc1)c1ccc(NCc2cccnc2)c(S(=O)(=O)N2CCOCC2)c1 | -1.51
O=C(COc1ccccc1)Nc1ccc2oc(=O)ccc2c1 | -4.97
O=C(OCn1nnc2ccccc2c1=O)c1cn(-c2ccccc2)nc1-c1cccnc1 | 10.9
COCCCNC(=S)N1CCCN(c2nc3cc(C)c(C)cc3cc2C#N)CC1 | 17.7
